PubChem BioAssay AID1345082 (National Center for Advancing Translational Sciences (NCATS), 2018)
Several values for one entry are separate records, joined by “and”; a condition that tells them apart may be missing. Identical values can stand only once. Screen size: about 94,000 compounds; about 4,000 (4.3%) were called active. This list was built around the results that the source calls inconclusive (neither active nor inactive); the mix of calls is not that of the screen. Calls come from the whole dose curve; as a rule, active = well fitted inhibition curve with a large enough effect; inconclusive = small, poorly fitted or top-dose-only effect; inactive = no such curve, though single readings can be large or run the other way. Potencies beside an inconclusive call are fits to weak or partial responses and may not hold up.
% is set by controls: 0 for no effect and ±100 for the full control effect; potency is the fitted concentration of half-maximal effect; tags give direction and shape of the fitted curve.

Test: Cytotoxic Profiling in NIH 3T3 Cell Line of Diverse Libraries Using Quantitative High-Throughput Screening; note: nearly all actives have a fitted effect of over 55% in size
Conditions: NIH 3T3 viability, CellTiter-Glo ATP luminescence, 48-72 h; activity change, negative = cytotoxicity: at 96.7 µM (top of the series) unless noted; series mostly up to 96.7 µM
In short: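 Luminescent ATP readout (CellTiter-Glo, 10 min RT) after 48 or 72 hr compound exposure of NIH 3T3 cells seeded at 400 cells/well in 1536-well format; quantitative HTS.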
For CCc1ccc(NC(=O)C2CCN(C(=O)c3ncn4c3COC(c3ccccc3)C4)CC2)cc1 (configuration not stated), the “activity change, negative = cytotoxicity” value was inactive: -27.4%. In the case of CCCN1C(=O)Cc2cc(C(=O)N3CCN(c4ccccc4Cl)CC3)ccc21, the Potency is reported as inconclusive: 50.1 µM [inhibitor, partial curve, poor fit]. In the case of Cc1ccsc1-c1[nH]nc2ncc(-c3ccnn3C)nc12, the Potency is reported as inconclusive: 126 µM [inhibitor, partial curve, poor fit]. For O=C1CCN(S(=O)(=O)c2ccccc2)CCCC(C(=O)NCCc2ccccn2)CCN1 (configuration not stated), the “activity change, negative = cytotoxicity” value was inactive: -7.01%. For COc1cccc(-c2cc(C(=O)NC3CCCCC3)c3cnn(C)c3n2)c1, the Potency was inconclusive: 50.1 µM [inhibitor, partial curve, poor fit]. For COc1ccc(C2Cn3cnc(C(=O)N4CCC(C(=O)Nc5cc(F)cc(F)c5)CC4)c3CO2)cc1 (configuration not stated), the Potency was inconclusive: 50.1 µM [inhibitor, partial curve, poor fit]. In the case of CN(C)C(=O)N(C)Cc1cccc(N2CCN([S+](=O)([O-])c3c(Cl)cccc3Cl)CC2)c1F, the Potency is reported as inconclusive: 44.7 µM [inhibitor, partial curve, poor fit]. With F[C@@H]1CN(Cc2cccnc2)C[C@@H]1OCc1nc2ccc(C(F)(F)F)cc2[nH]1 the “activity change, negative = cytotoxicity” value was inactive: -36% [at 138 µM]. With Cn1cc(C(=O)N2CCOc3c(O)cc(-c4csc5ccccc45)cc3C2)cn1 the Potency was inconclusive: 44.7 µM [inhibitor, partial curve, poor fit]. In the case of Cc1cn2nnc(C(=O)N3CCC(C(=O)Nc4ccc(C)c(Cl)c4)CC3)c2c(=O)[nH]1, the “activity change, negative = cytotoxicity” value is reported as inactive: -6.49%. For COC(=O)NC1CCCN(c2ccc3nnc(-c4ccccc4)n3n2)C1 (configuration not stated), the Potency was inconclusive: 50.1 µM [inhibitor, partial curve, poor fit]. For COc1ccc(C(=O)NC2CCN(c3cc(-c4cccs4)[nH]n3)CC2)cc1OC, the Potency was inconclusive: 44.7 µM [inhibitor, partial curve, poor fit]. In the case of COc1ccc(C(=O)N2CCN(C(=O)N3CC4CC(C3)[C@H]3CCCC(=O)N3C4)CC2)cc1F (some centres not stated), the “activity change, negative = cytotoxicity” value is reported as inactive: -12.7%. In the case of CCOc1ccc(C(=O)N2C[C@@H](CO)[C@H](c3nc(C4CC4)no3)C2)cc1, the “activity change, negative = cytotoxicity” value is reported as inactive: -4.69%. For O=S(=O)(c1ccccc1)N1CCC(Cc2nncn2-c2ccccc2)C1 (configuration not stated), the Potency was inconclusive: 56.2 µM [inhibitor, partial curve, poor fit]. For O=c1cc(N2CCOCC2)oc2c(-c3cccc4[nH]ccc34)nccc12, the Potency was active: 8.91 µM. For Cc1ccc(C)c(N2CCN(C(=O)CCc3conc3-c3ccccc3F)CC2)c1, the Potency was inconclusive: 50.1 µM [inhibitor, partial curve, poor fit]. In the case of COCC(=O)N1CCCC(C(=O)N(C)CCn2ccnc2C)C1 (configuration not stated), the “outcome” value is reported as “inactive”. With Cc1cc2c(c(=O)n(-c3ccc(F)cc3)c(=O)n2CC(=O)Nc2ccccc2F)n1C the Potency was inconclusive: 56.2 µM [inhibitor, partial curve, poor fit]. With CN(Cc1ccsc1)C1CCCc2ccccc21 (configuration not stated) the “activity change, negative = cytotoxicity” value was inactive: -19.5% [at 138 µM]. In the case of O=C(NCCC1CCN(C(=O)Nc2cccc(F)c2)CC1)c1cc(F)ccc1F, the Potency is reported as inconclusive: 50.1 µM [inhibitor, partial curve, poor fit]. For O=C1C(N2CCN(S(=O)(=O)c3ccc(F)cc3F)CC2)CCN1Cc1cccnc1 (configuration not stated), the Potency was inconclusive: 39.8 µM [inhibitor, partial curve, poor fit]. For O=[S+]([O-])(NC1CCN(Cc2ccc(-c3ccsc3)cc2)C1)c1cccc(C(F)(F)F)c1 (configuration not stated), the Potency was active: 15.8 µM. For Cc1nn(-c2ccccc2)c2c1C(C)N(C1CCCN([S+](=O)([O-])c3cccc(C(F)(F)F)c3)C1)C2=O (configuration not stated), the “activity change, negative = cytotoxicity” value was inactive: -29.1%. In the case of O=C(NC1CCN(c2nccc(Nc3ccccc3Cl)n2)CC1)c1ccc(Cl)cc1, the Potency is reported as inconclusive: 44.7 µM [inhibitor, partial curve, poor fit]. In the case of CC(C)C[C@@H]1N[C@H](C(=O)NC2CCCC2)Cc2c[nH]c3cccc1c23, the Potency is reported as active: 50.1 µM. For O=C1NCCC[C@@H]1NC(=O)[C@H]1CN(C(=O)c2cccc(F)c2)CCN1C(=O)c1cccs1, the “activity change, negative = cytotoxicity” value was inactive: 2.89%. In the case of CC(NC(=O)c1noc(-c2ccc(F)cc2)n1)c1ccccc1 (configuration not stated), the “activity change, negative = cytotoxicity” value is reported as inactive: -18%. With Cn1ccc2c(C(=O)NCCc3cnc[nH]3)nc(-c3ccccc3)cc21 the Potency was inconclusive: 56.2 µM [inhibitor, partial curve, poor fit]. For Cc1cnc(C(=O)N2CC[C@@H]3CN(Cc4ccccc4)[C@@H]3C2)cn1, the “activity change, negative = cytotoxicity” value was inactive: -6.2%. For COCCOc1ccc2c(n1)CCN(C(=O)Nc1ccc(C)c(C)c1)C2, the Potency was inconclusive: 31.6 µM [inhibitor, partial curve, poor fit]. For CC(C)OCCCNC(=O)C1CCCN1c1nccc(Nc2ccccc2F)n1 (configuration not stated), the “activity change, negative = cytotoxicity” value was inactive: -10.6%. For CCN1CCN(C(=O)c2ccc3nc(-c4ccncc4)oc3c2)CC1, the “activity change, negative = cytotoxicity” value was inactive: -10.4% [at 138 µM]. With CCn1ccnc1CN1CCCC(CNC(=O)c2cccc(OC)c2OC)C1 (configuration not stated) the “outcome” value was “inactive”. With COc1cccc(CN2CCCC(NCc3cc(C)ccc3-n3cccn3)C2)c1 (configuration not stated) the Potency was inconclusive: 44.7 µM [inhibitor, partial curve, poor fit]. With O=C(Cc1c(F)cccc1Cl)N1CCC(c2noc(COc3ccc(F)cc3)n2)CC1 the Potency was inconclusive: 50.1 µM [inhibitor, partial curve, poor fit]. With COc1cccc([S+](=O)([O-])N2CCC(N3Cc4ccccc4C3=O)CC2)c1 the Potency was inconclusive: 22.4 µM [inhibitor, full curve, poor fit]. With O=C(c1ccncc1)N1CCC2(CC1)N=C(c1ccccc1)NO2 the “outcome” value was “inactive”. With O=C(c1cnccn1)N1CCc2nc(OCC3CC3)ccc2C1 the “activity change, negative = cytotoxicity” value was inactive: -23.8%. With CCc1nn(-c2ccc(F)cc2)c(Oc2ccccc2)c1CCC(=O)N1CCCC1 the Potency was inconclusive: 14.1 µM [inhibitor, full curve, poor fit]. In the case of Cc1ccc(CNC(=O)Cn2c(-c3ccccc3)nc(C)c(CCO)c2=O)cc1, the Potency is reported as inconclusive: 70.8 µM [inhibitor, partial curve, poor fit]. For O=C(Cn1ccn2nc(-c3ccccc3)c(CO)c2c1=O)Nc1cc(F)ccc1Cl, the Potency was inconclusive: 70.8 µM [inhibitor, single point]. For COc1cccc(NC(=O)C2CC(=O)N(c3n[nH]c4cc(Br)ccc34)C2)c1 (configuration not stated), the Potency was inconclusive: 50.1 µM [inhibitor, partial curve, poor fit]. With CCCNC(=O)N(C1CCOCC1)C1CCN(C(=O)Cc2cccnc2)CC1 the “outcome” value was “inactive”. For COCC1CN(Cc2ccc(Br)cc2)CC12CCNCC2 (configuration not stated), the Potency was inconclusive: 44.7 µM [inhibitor, partial curve, poor fit]. With Cc1noc2ccc(-c3cccnc3)nc12 the Potency was inconclusive: 112 µM [inhibitor, partial curve]. For O=C1N[C@@H]2CCN(C(=O)c3ccc(-c4ccccc4)cc3)[C@@H]2C(=O)N1c1ccc(F)cc1, the “activity change, negative = cytotoxicity” value was inactive: -20.5% [at 174 µM]. For O=C1Cc2c(-c3cccc(N4CCOCC4)c3)n[nH]c2CN1Cc1ccccn1, the Potency was inconclusive: 89.1 µM [inhibitor, partial curve, poor fit]. For COC(=O)N1CCCC(c2nn(-c3ccccn3)c(=O)[nH]2)C1 (configuration not stated), the “activity change, negative = cytotoxicity” value was inactive: -18.5% [at 138 µM]. In the case of CN(C)c1cccc(-c2cc(-c3cn[nH]c3)c3cncn3c2)c1, the Potency is reported as active: 14.1 µM. For Cc1nc2cc(N3CCCC(C(=O)O)C3)cnc2nc1C (configuration not stated), the “activity change, negative = cytotoxicity” value was inactive: -19.7%. In the case of Cc1cnc(-c2ccccc2)n1CCNS(=O)(=O)c1ccccc1, the “activity change, negative = cytotoxicity” value is reported as inactive: -7.72%. For C=CCCC(CN1CCCC1)Oc1ccc(-c2ccccc2)nn1 (configuration not stated), the Potency was inconclusive: 56.2 µM [inhibitor, partial curve, poor fit]. With Cc1nn(C)c(C)c1CNC(=O)C1CC(=O)N(c2n[nH]c3cccc(F)c23)C1 (configuration not stated) the “activity change, negative = cytotoxicity” value was inactive: -4.3%. With COc1ccc(Cl)cc1C(=O)N1CCC2(CC1)N(c1ccccc1)C(=O)CS2(=O)=O the “activity change, negative = cytotoxicity” value was inactive: -11.9%. For COc1ccc(CC(=O)N2C[C@@H](CO)[C@@H]3Oc4ccccc4[C@@H]32)cc1, the Potency was inconclusive: 70.8 µM [inhibitor, single point]. With O=C1COCC2(CN(CCCc3ccccc3)C2)CN1Cc1ccccc1 the Potency was inconclusive: 89.1 µM [inhibitor, partial curve, poor fit]. For CCOc1ccc(NC(=O)C2CC(=O)N(c3n[nH]c4cccc(F)c34)C2)cc1 (configuration not stated), the Potency was inconclusive: 22.4 µM [inhibitor, single point]. With COc1cccc(C(=O)N2CCC3(C2)C(=O)N(CCc2ccccc2)c2ccccc23)c1 (configuration not stated) the Potency was inconclusive: 44.7 µM [inhibitor, partial curve, poor fit] and inconclusive: 70.8 µM [inhibitor, partial curve, poor fit]. In the case of O=C(COc1ccc(F)cc1)N1CCC(n2cc(-c3nc(-c4ccccc4)no3)nn2)CC1, the “activity change, negative = cytotoxicity” value is reported as inactive: -19.3%. For COc1ccc(CN2C(=O)[C@@H]3C[C@@H](CN3Cc3ccccc3Cl)Oc3ccccc32)cc1, the Potency was active: 44.7 µM. In the case of O=C(c1n[nH]c2ccccc12)N1CCC2(CC1)CC(N1CCCCC1)CCO2 (configuration not stated), the “activity change, negative = cytotoxicity” value is reported as inactive: -14.5%. For CCC(=O)Nc1ccc(-c2c(-c3ccc(C)cc3)nn(-c3ccc(F)cc3)c2OC(C)=O)cc1, the Potency was active: 28.2 µM. For COc1ccc(NC(=O)O[C@@H]2CO[C@H]3[C@@H]2OC[C@@H]3NC(=O)COc2ccccc2)cc1, the “activity change, negative = cytotoxicity” value was inactive: -24.1% [at 174 µM]. With Cc1ccc(-c2noc([C@@H]3Cc4nc[nH]c4CN3C(=O)Nc3ccccc3)n2)cc1 the Potency was inconclusive: 112 µM [inhibitor, partial curve, poor fit]. For O=C(NCCn1ccc2ccc(Cl)cc21)C1CC(=O)N(c2n[nH]c3ccccc23)C1 (configuration not stated), the Potency was inconclusive: 70.8 µM [inhibitor, single point]. In the case of O=C(NCC1CCCCCC1)c1nc2cccnc2n(CCc2ccccc2)c1=O, the Potency is reported as active: 35.5 µM.
